Some structures have more than one record in an assay (separate samples or runs), and their calls can disagree.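 Percent growth is the endpoint: 0 to 100 indicates growth inhibition (40 means 60% inhibition), 0 means no net growth, and negative values indicate cell death.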 A number of entries come with more than one value. The other results are left out here. Rule for the calls: active = growth percent below 10; inactive = the rest. There may be further records. These are repeated runs of one drug, at the concentration stated with the values; one value stands for one run. Counts like (3×) say how often a value occurs here.
System: HL-60(TB) leukemia
Test: NCI-60 one-dose screen, 48 h (100 = growth as untreated, 0 = no growth, -100 = all killed)

COc1cccc2c1C(=O)c1c(O)c3c(c(O)c1C2=O)C[C@@](O)(C(=O)CO)C[C@@H]3OC1CC(N)C(O)C(C)O1 (some centres undefined)
growth (0.25 µM, runs of 2019): inactive: 57.3, 47.8, 24.1, 23.1, 23.4, 29.6, 28.6, 25.8 (2×), 21.4 (2×), 28.2, 22.9, 30.1 (2×), 32, 40.2, 37.9, 41.2, 38.1, 36.3 (2×), 34.5, 36.4, 38.8, 39.1, 39.4, 48.5, 58.4, 13.8, 45, 29.8, 29, 33.2, 27.9, 27.3, 31.8, 26, 29.5, 30.2, 18.7, 61.2, 25.3, 18.8, 36.5% | growth (0.25 µM, runs of 2020): inactive: 16.4, 18, 22.5, 20.8, 17.7, 25.8, 24.2, 23.9 (2×), 23.8, 29.4, 16, 25.3, 19.3, 39, 29.8, 19.7, 36.6, 25.9, 35.9, 34.8, 27.7, 16.9, 27, 38.3% | growth (0.25 µM, runs of 2021): inactive: 14.1, 21.7, 27.6, 30.6, 32, 24.8, 23, 36.2, 32.4, 26.6, 27.8, 14.9, 15, 23.3 (2×), 25.5, 21.8, 16.4, 17.1, 18.1, 28.5, 17, 19.3, 21.9, 22.9, 33.9, 18.3, 24.5, 17.9, 21.5, 22.5, 13.8, 19.8, 12.9, 18.9, 19.9, 13.7, 13.3, 13.6, 16.7, 10.9, 11.6, 23.4, 20, 24.9, 17.3, 17.4, 27.4% and active: 8.27%, -1.25% | growth (0.25 µM, runs of 2022): inactive: 44.9, 57.2, 11.6, 35.9, 44.3, 53.9 (2×), 70.4, 48.4, 46.6, 61.3, 60.1, 32.3, 38.5, 46.2, 70.5, 19.3, 18, 23.1, 10.9% and active: 8.53, 3.92, 4.02, 3.73, 9.88% | growth (25 µM, runs of 1991): active: -50.4, -40.6, -33, -58.6, -50.7, -42.5, -69.3, -69.1, -66.7, -54.3, -55.6, -47.5, -36.3, -22.4, 3.73% and inactive: 18.8%, 12.8% | growth (25 µM, runs of 1992): active: -50.9, -52.2, -51.9, -46.4, -57.7, -45.9, 2.66, -48.7 (2×), -43, -15.3, -62.8, -61.9, -56.6, -52.8, -51.2, -45.4, -57.2, -45.2, -32.7, -34.8, -47.5, -33.8, -28.2 (2×), -44.1, -55.2, -73.3, -33.1, -50.5, -5.2, -65.9, -81.5, -31.4, -38.2, -40.1, -54.5, -2.28, 9.38, -40.7, -38.1, 1.09, -54.2 (2×), -42.7, -46.5, -68.5, -29.3, -70.2, -53.8, -56.8, -68.1, -32, -55.7, -23.3, -45.7, -68.4, -63.2, -57.6, -45.5, -60.6, -40.8, -17.5, -18.6, -43.4, -50.6, -54.4, -80.4, -32.4, -25.9, -65.7, 6.56, 3.46, -15.5, -34.7, -38.3 (2×), -24.1, -71.1, -71.3, -51.8, -46.2, -10.3, -48.9, -36.7, -66.3, -47 (2×), -64.2, -61.8, -3.83, -56.7, -56.2, -65.5, -58, -63.3, -47.1, -59.6, -65.2, -63.1, -53.6, -18.1, -55.9, -67.8, -12.2, -48.5, -21.8, -61.2, -39.2, -66.9, -35.3, -29.8% and inactive: 11.6, 34.9, 23.2, 10, 11.9, 11.1, 33.5, 44.5% | growth (25 µM, runs of 1993): active: -38.3, -39.8, -57.5, -69.9, -38.2, -59.1, -51.3, 3.9, -39.1, -21.8, 0.71, -63.4, -11.3, -74.2, -50.2, -35.8, -48.3, -56.3, -66, -60.7, -66.2, -49.5, -38.6, -65.6, -60.9, -26, -61.2, -61.1, -73.3, -56.7, 6.08, -64, -51.5, -63.3, -70.5, 1.13, -59.7, -53.4, -60, -19.2, -24.3, -37.2% and inactive: 20.9, 26, 12.4, 49.4, 47.3% | growth (25 µM, runs of 1994): active: -26.7, -56, -69.6, 1.81, -8.57, -42.7, -31.8, -50.4, -16.7, -35, -62.9, -5.98, -24.5, -48, -54, -7.56, -71.6, -34.8, -12.8, -17.4, -47.9, -45.8, 2.32, -47, -44.9, 5.22, -31.3, -59.8% and inactive: 99.5%, 21.4%, 22.2% | growth (25 µM, runs of 1995): active: -44.1, -34.5, -51.9, -44.4, -55.6, -42, -37.7, -62.2, -54, -42.9, -57.3, -55.4, -59.6 (2×), -53.7, -49, -17.5, -72.8, -8.17, -29.5, -53.9, -62, -30.9, -29.7, -14, -42.5, 8.42, -62.5, -62.7, -24.8, -47.7, -57, 1.96% and inactive: 18.1%, 14.9% | growth (25 µM, runs of 1996): active: 4.5, -10.8, -42.2, -26.5, -57.3, -59, -4.18, -50.7, -53.9, -51.2, -86.2, -53.3, -86.8, -22.9, -50.4, 1.53, -71.9, -42.3, -43.5, -50.8, -49.2, -72.7, -64.7, -26.3, -42.1, -45.5, -52.1, -8.64, -47.6, -40.6, -100, -54.4% and inactive: 47.5, 110, 10.3, 50.1, 34.5% | growth (25 µM, runs of 1997): active: -50.3, -26.4, -52.8, -63.9, -34.1, -40.6, -25.1, -52.2, -53.1, -49.4, -19.5, -18.4, 0, -43.5, -10.8, -1.15, 5.91, -24.9, -6.61, -0.595, -41.8, -16.3, -22.8, -19.9% and inactive: 18.6, 12.8, 20.5, 30, 95.8% | growth (25 µM, runs of 1998): active: -24.3, -53, -75.3, -73.6, -37.7, -54.2, -33.4, -50.9, 5.95, -26.9, -58.9, -46.8, 8.79, -43.1, -40.6, -60.9, -47.1, -52.9, -42% and inactive: 47.9% | growth (25 µM, runs of 1999): active: -50.5, -34.1, -34, -50.2, -67.5, -49.5, -84.1, -60.8, 3.06, 1.4, -83.6, -25.6 (2×), 1.77, -79.3, 1.19, -81, -21.8% | growth (25 µM, runs of 2000): active: -70.2, -100, 3.13, -78.6%

Source: PubChem BioAssay (NCI)
